# Measurements reported in PubChem BioAssay AID504832 (National Center for Advancing Translational Sciences (NCATS), 2011).
# The campaign covered roughly 310,000 compounds. About 18,000 (5.8%) were called active. This list was built around the results that the source calls inconclusive (neither active nor inactive); the mix of calls is not that of the screen. The call rests on the fitted dose curve; in most records, active means well fitted inhibition curve with a large enough effect; inconclusive means small, poorly fitted or top-dose-only effect, or another doubt; inactive means no such curve, though single readings can be large or run the other way. No potency is given beside an inconclusive call; the fits are too rough.
# Test: Primary qHTS for delayed death inhibitors of the malarial parasite plastid, 48 hour incubation
# Conditions: P. falciparum luciferase growth in erythrocytes; series mostly up to 28.7 µM; activity change, negative = inhibition: at the top concentration
# In short: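 Here the parasites carry a stable luciferase gene and grow inside erythrocytes in Albumax-based RPMI medium with compound for one erythrocytic cycle. Activity is scored as loss of luminescent signal.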
# On the % scale 0 is the no-effect control and ±100 the full control effect; potency means the concentration at half of the fitted maximal effect; tags describe the fitted curve by direction and shape.
Compound,Potency,"activity change, negative = inhibition"
O=C(CCCCCCCCN1C(=O)c2ccccc2C1=O)N1CCOCC1,"inconclusive [inhibitor, partial curve, poor fit]",–
Cc1nc(SCC(=O)c2ccc(F)cc2)n[nH]1,–,inactive: 11.7%
CC(C)C(NC(=O)c1ccccc1)C(=O)NCCc1ccccc1 (stereo not given),–,inactive: 14% [at 5.75 µM]
COc1ccccc1CNC(=O)c1ccc(CNc2c(N3CCCC3)c(=O)c2=O)cc1,"inconclusive [inhibitor, single point]",–
CCn1c(SCC(=O)O)nnc1-c1ccccc1,–,inactive: 13.8%
C/C(=N\Nc1cccc(Cl)c1)c1ccc(-n2ccnc2)cc1,"inconclusive [inhibitor, partial curve]",–
CC(c1ccccc1)N(C)CC(=O)NC(=O)NCCC1=CCCCC1 (stereo not given),"inconclusive [inhibitor, single point]",–
Cc1sc2nc(CSCC(=O)Nc3c(Cl)cccc3Cl)[nH]c(=O)c2c1C,"inconclusive [inhibitor, single point]",–
O=C(CSC1=NS(=O)(=O)c2cc(F)ccc2N1)NCc1ccc(F)cc1,"inconclusive [inhibitor, single point]",–
O=C(NC1CCCN(Cc2ccc(Cl)cc2)C1)c1ccccc1-c1ncc[nH]1 (stereo not given),"inconclusive [inhibitor, single point]",–
CC1=C(C(=O)OCc2ccccc2)C(c2ccccc2Cl)NC(=O)N1CCCCCC(=O)O (stereo not given),–,inactive: 13.7%
O=C(NNC(=O)c1cc(-c2ccc(Cl)cc2)nc2ccccc12)c1csc(N2CCOCC2)n1,"inconclusive [inhibitor, partial curve, poor fit]",–
CCc1ccc2c(CC(=O)Nc3cccc(S(=O)(=O)N4CCOCC4)c3)coc2c1,"inconclusive [inhibitor, single point]",–
CCN(C(=O)COC(=O)c1cccc(NS(=O)(=O)c2ccc(F)c(F)c2)c1)C1CCS(=O)(=O)C1 (stereo not given),–,inactive: -23.8%
Cc1ccc(Cn2c(N/N=C/c3ccncc3)nc3c2c(=O)n(C)c(=O)n3C)cc1,active: 10.4 µM,–
Cn1cc(SCC(=O)Nc2nc3ccccc3s2)c2ccccc21,–,inactive: -1.52%
Cc1c(OCc2ccccc2)cccc1OCc1ccccc1,–,inactive: 21.7%
CCCCN(C(=O)CSc1nnc(-c2ccc(OC)cc2)n1CC)c1c(N)n(Cc2ccccc2)c(=O)[nH]c1=O,–,inactive: 0.595%
COc1ccc(NC(=O)CSc2nncn2C)cc1,–,inactive: 1.06%
COc1cc(CNC(C)c2ccccc2)cc(Cl)c1OCC(=O)Nc1ccccc1 (stereo not given),active: 11.7 µM,–
Cc1ccc(C(=O)N/N=C/c2ccc(OC(=O)c3ccccc3Cl)cc2)cn1,–,inactive: -10.7%
COc1cnc(-c2ccccn2)nc1Oc1ccc(Cl)cc1,active: 0.37 µM,–
COCCC(=O)N1CCC(Oc2ccc(C(=O)N(C)CCCC3CCCC3)cc2)CC1,"inconclusive [inhibitor, single point]",–
Nc1nonc1C(=O)NCCNCc1cc(Br)ccc1OCc1ccccc1F,active: 3.29 µM,–

Compound,Potency,"activity change, negative = inhibition"
COc1ccc(NC(=O)CSc2nnc(Cc3cccn3C)n2-c2ccc(F)cc2)cc1OC,"inconclusive [inhibitor, partial curve, poor fit]",–
CC(CNc1nc2ccccc2n2cnnc12)c1ccccc1 (stereo not given),"inconclusive [inhibitor, single point]",–
N#C/C(=C\c1ccc[nH]1)C(=O)NC1CC1,–,inactive: 3.12%
COc1ccc(NC(=O)CCSc2ccc(C)cc2)cc1,–,inactive: 1.86%
O=C(/C(=C/O)N=Nc1ccccc1Cl)c1ccccc1,"inconclusive [inhibitor, single point]",–
COc1ccc(S(=O)(=O)N2CCCC2C(=O)NCC(=O)Nc2cccc(Cl)c2C)cc1 (stereo not given),"inconclusive [inhibitor, full curve, poor fit]",–
O=C(N/C(=C/C=C/c1ccccc1)C(=O)N1CCOCC1)c1ccccc1Cl,"inconclusive [inhibitor, partial curve, poor fit]",–
NNc1nc(N)c2c(n1)-c1ccccc1CC21CCCC1,active: 10.4 µM,–
O=C(NC(=S)NCc1cccnc1)c1cc(Br)ccc1Cl,"inconclusive [inhibitor, single point]",–
CN(CC(=O)Nc1ccc(S(=O)(=O)N2CCCC2)cc1)CC(=O)Nc1ccc(F)c(F)c1F,active: 10.4 µM,–
COc1ccc2cc(C(=O)NCc3ccccc3)c(=Nc3ccc(C(=O)O)cc3)oc2c1,"inconclusive [inhibitor, partial curve, poor fit]",–
COc1ccc(CNC(=O)C(C)OC(=O)c2cccn2C)cc1 (stereo not given),"inconclusive [inhibitor, partial curve, poor fit]",–
Cc1ccccc1-n1c(SC(C)C(N)=O)nnc1-c1cccnc1 (stereo not given),"inconclusive [inhibitor, partial curve]",–
Cc1cc(C)cc(NC2=C(N)C(=O)c3ccccc3C2=O)c1,"inconclusive [inhibitor, full curve]",–
CCOC(=O)N1CCN(C2=C(NS(=O)(=O)c3ccccc3)C(=O)c3ccccc3C2=O)CC1,active: 13.1 µM,–
CCCC[C@@H]1CNCCN1CCc1cccc(F)c1,"inconclusive [inhibitor, single point]",–
O=C(Oc1nsnc1N1CCOCC1)N(c1ccccc1)c1ccccc1,"inconclusive [inhibitor, partial curve, poor fit]",–
COc1ccc(NC(=O)CN2CCc3ccccc3C2)cc1S(=O)(=O)N1CCOCC1,"inconclusive [inhibitor, partial curve, poor fit]",–
O=C(/C=C/c1ccccc1)NC(=S)Nc1cccnc1,–,inactive: 32%
CCC(C)NC(=S)N(CCc1ccccc1)Cc1cc2cc(OC)c(OC)cc2[nH]c1=O (stereo not given),"inconclusive [inhibitor, single point]",–
Cc1nnc(SCC(=O)Nc2sccc2C#N)n1Cc1ccccc1,–,inactive: 16.5%
CCn1cc(C(=O)O)c(=O)c2cc(F)c(N3CCN(S(=O)(=O)c4ccc(NC(=O)OC)cc4)CC3)cc21,active: 4.65 µM,–
COc1ccc(S(=O)(=O)N2CCOCC2)cc1NC(=O)/C=C/c1ccc(F)cc1,"inconclusive [inhibitor, single point]",–
C1=CCC(CN2CCN(C3CCCCCC3)CC2)CC1 (stereo not given),"inconclusive [inhibitor, single point]",–

Compound,Potency,"activity change, negative = inhibition"
CN(C)CCNC=C(C(=O)Nc1ccc(Cl)cc1Cl)C(=O)Nc1ccc(Cl)cc1Cl,active: 3.29 µM,–
CN(C)c1ccc(C=C(c2nnnn2-c2ccccc2)c2nnnn2-c2ccccc2)cc1,active: 9.28 µM,–
CNc1oc(Cc2cccc3ccccc23)nc1C#N,–,inactive: -20.9%
CCc1ccc(OCCCN=C(C)c2c(O)n(C)c(=O)n(C)c2=O)cc1,"inconclusive [inhibitor, single point]",–
CCOC(=O)c1cc2c(ccn2C)n1Cc1cc(C)ccc1C,"inconclusive [inhibitor, single point]",–
CCCCC(CC)CNC(=O)CCS(=O)(=O)c1cccc2nsnc12 (stereo not given),–,inactive: 4.11%
Cc1ccc(-c2nc(NCCN(C)C)c3ccccc3n2)cc1,"inconclusive [inhibitor, single point]",–
Cc1noc(/C=C/N(C)C)c1S(=O)(=O)N1CCC(C(=O)O)CC1,–,inactive: 0.098%
CCSc1nnc(NC(=O)[C@@H](NC(=O)c2ccccc2)C(C)C)s1,–,inactive: 3.46%
O=C(CCC1CCCCC1)Nc1cc(Cl)ccc1N1CCOCC1,"inconclusive [inhibitor, partial curve]",–
CS(=O)(=O)N(CC(=O)O)c1cc(C(F)(F)F)ccc1Cl,"inconclusive [inhibitor, full curve, poor fit]",–
COc1ccc2oc(C(=O)OCC(=O)Nc3cc(S(=O)(=O)N4CCOCC4)ccc3C)c(C)c2c1,"inconclusive [inhibitor, partial curve, poor fit]",–
COc1cc(/C=C2\C(=N)N3N=C(C)SC3=NC2=O)cc(Cl)c1OCCOc1ccc(NC(C)=O)cc1,"inconclusive [inhibitor, partial curve, poor fit]",–
CCN1C(=O)[C@H]2[C@@H](c3ccc(SC4CCCCC4)c(OC)c3)N[C@@](Cc3ccccc3)(C(=O)OC)[C@H]2C1=O,active: 2.08 µM,–
COc1ccc(Nc2ncnc3ccc([N+](=O)[O-])cc23)c(OC)c1,"inconclusive [inhibitor, full curve, poor fit]",–
Cc1cc(S(=O)(=O)NCc2ccccc2)ccc1OCC(=O)Nc1cccc([N+](=O)[O-])c1,"inconclusive [inhibitor, single point]",–
COC(=O)c1cc(C(=O)NCCCN2CCOCC2)cc([N+](=O)[O-])c1,–,inactive: 18.6%
CC(=O)[C@@H]1[C@@H]2C(=O)N(Cc3ccccc3)C(=O)[C@@H]2C2c3ccccc3C=CN21 (stereo not given in full),"inconclusive [inhibitor, single point]",–
O=C(Nc1ccnn1C1CCN(C2CCC2)CC1)c1ccccc1,–,inactive: -3.32%
O=C(c1coc2ccccc2c1=O)N1CCN(c2cccc(C(F)(F)F)c2)CC1,"inconclusive [inhibitor, single point]",–
COc1cccc(CC2(CO)CCCN(CC3=Cc4cc(Cl)ccc4OC3)C2)c1 (stereo not given),"inconclusive [inhibitor, partial curve]",–
CCCN1CCC2(CC1)C(C#N)=C(N)Oc1c2sc2nc(C)cc(C)c12,"inconclusive [inhibitor, single point]",–
